This is an account of results in article PMC9911399, “Two distinct binding modes provide the RNA-binding protein RbFox with extraordinary sequence specificity”.

Changes are numbered by the printed parent chain; changes in the protein carry UniProt numbers. The list shows a part of the results.

T1: RBFOX1 RRM RbFoxmut (Fox-RRM*) (Homo sapiens, UniProt Q9NWB1 109-208, R118D;E147R;N151S;E152T)
T1 sequence: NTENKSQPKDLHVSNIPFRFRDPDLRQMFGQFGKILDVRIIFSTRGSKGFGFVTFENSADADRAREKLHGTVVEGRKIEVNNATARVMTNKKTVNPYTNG

B1: GGGCGGU (DNA:RNA)
RNA: GGGAGACCGGAAUUCAGAUUGUCCGGGCGGUUUAAAUCCCGUCGUAGCCACCA
DNA 1: CAATCTGAATTCCGGTCTCCC
DNA 2: TGGTGGCTACGACGGGATT
B2: UGUGUUG (DNA:RNA)
RNA: B1 RNA with G25U, G27U, C28G, G29U, G30U, U31G
DNA 1: CAATCTGAATTCCGGTCTCCC
DNA 2: TGGTGGCTACGACGGGATT
B3: UCCACUU (DNA:RNA)
RNA: B1 RNA with G25U, G26C, G27C, C28A, G29C, G30U
DNA 1: CAATCTGAATTCCGGTCTCCC
DNA 2: TGGTGGCTACGACGGGATT
B4: CAAGACC (DNA:RNA)
RNA: GGGAGACCGGAAUUCAGAUUGUCCCAAGACCUUAAAUCCCGUCGUAGCCACCA
DNA 1: CAATCTGAATTCCGGTCTCCC
DNA 2: TGGTGGCTACGACGGGATT
B5: CACUCCA (DNA:RNA)
RNA: B4 RNA with A27C, G28U, A29C, C31A
DNA 1: CAATCTGAATTCCGGTCTCCC
DNA 2: TGGTGGCTACGACGGGATT
B6: AAGCAGC (DNA:RNA)
RNA: B4 RNA with C25A, A27G, G28C, C30G
DNA 1: CAATCTGAATTCCGGTCTCCC
DNA 2: TGGTGGCTACGACGGGATT
B7: ACCGAGC (DNA:RNA)
RNA: B4 RNA with C25A, A26C, A27C, C30G
DNA 1: CAATCTGAATTCCGGTCTCCC
DNA 2: TGGTGGCTACGACGGGATT
B8: CAGUAGA (DNA:RNA)
RNA: B4 RNA with A27G, G28U, C30G, C31A
DNA 1: CAATCTGAATTCCGGTCTCCC
DNA 2: TGGTGGCTACGACGGGATT
B9: GCCGGUC (DNA:RNA)
RNA: B4 RNA with C25G, A26C, A27C, A29G, C30U
DNA 1: CAATCTGAATTCCGGTCTCCC
DNA 2: TGGTGGCTACGACGGGATT
B10: ACCCAAA (DNA:RNA)
RNA: B4 RNA with C25A, A26C, A27C, G28C, C30A, C31A
DNA 1: CAATCTGAATTCCGGTCTCCC
DNA 2: TGGTGGCTACGACGGGATT
B11: CGCUUUC (DNA:RNA)
RNA: B4 RNA with A26G, A27C, G28U, A29U, C30U
DNA 1: CAATCTGAATTCCGGTCTCCC
DNA 2: TGGTGGCTACGACGGGATT
B12: AAAUCCG (DNA:RNA)
RNA: B4 RNA with C25A, G28U, A29C, C31G
DNA 1: CAATCTGAATTCCGGTCTCCC
DNA 2: TGGTGGCTACGACGGGATT
B13: UAAUUUC (DNA:RNA)
RNA: B4 RNA with C25U, G28U, A29U, C30U
DNA 1: CAATCTGAATTCCGGTCTCCC
DNA 2: TGGTGGCTACGACGGGATT
B14: AUAGAGU (DNA:RNA)
RNA: B4 RNA with C25A, A26U, C30G, C31U
DNA 1: CAATCTGAATTCCGGTCTCCC
DNA 2: TGGTGGCTACGACGGGATT
B15: AUGUAUC (DNA:RNA)
RNA: B4 RNA with C25A, A26U, A27G, G28U, C30U
DNA 1: CAATCTGAATTCCGGTCTCCC
DNA 2: TGGTGGCTACGACGGGATT
B16: CAACAGG (DNA:RNA)
RNA: B4 RNA with G28C, C30G, C31G
DNA 1: CAATCTGAATTCCGGTCTCCC
DNA 2: TGGTGGCTACGACGGGATT
B17: CUAGCUU (DNA:RNA)
RNA: B4 RNA with A26U, A29C, C30U, C31U
DNA 1: CAATCTGAATTCCGGTCTCCC
DNA 2: TGGTGGCTACGACGGGATT
B18: UAAGGCG (DNA:RNA)
RNA: B4 RNA with C25U, A29G, C31G
DNA 1: CAATCTGAATTCCGGTCTCCC
DNA 2: TGGTGGCTACGACGGGATT
B19: CAAGGUC (DNA:RNA)
RNA: B4 RNA with A29G, C30U
DNA 1: CAATCTGAATTCCGGTCTCCC
DNA 2: TGGTGGCTACGACGGGATT
B20: UCCUGCA (DNA:RNA)
RNA: B4 RNA with C25U, A26C, A27C, G28U, A29G, C31A
DNA 1: CAATCTGAATTCCGGTCTCCC
DNA 2: TGGTGGCTACGACGGGATT
B21: UAUAAUG (DNA:RNA)
RNA: B4 RNA with C25U, A27U, G28A, C30U, C31G
DNA 1: CAATCTGAATTCCGGTCTCCC
DNA 2: TGGTGGCTACGACGGGATT
B22: GGUCUCG (DNA:RNA)
RNA: B1 RNA with G27U, G29U, G30C, U31G
DNA 1: CAATCTGAATTCCGGTCTCCC
DNA 2: TGGTGGCTACGACGGGATT
B23: CGAGCUC (DNA:RNA)
RNA: B4 RNA with A26G, A29C, C30U
DNA 1: CAATCTGAATTCCGGTCTCCC
DNA 2: TGGTGGCTACGACGGGATT
B24: AUGAGUC (DNA:RNA)
RNA: B1 RNA with G25A, G26U, C28A, G30U, U31C
DNA 1: CAATCTGAATTCCGGTCTCCC
DNA 2: TGGTGGCTACGACGGGATT
B25: UAGGGAC (DNA:RNA)
RNA: B4 RNA with C25U, A27G, A29G, C30A
DNA 1: CAATCTGAATTCCGGTCTCCC
DNA 2: TGGTGGCTACGACGGGATT
B26: CACGCCA (DNA:RNA)
RNA: B4 RNA with A27C, A29C, C31A
DNA 1: CAATCTGAATTCCGGTCTCCC
DNA 2: TGGTGGCTACGACGGGATT
B27: GCCAGCC (DNA:RNA)
RNA: B4 RNA with C25G, A26C, A27C, G28A, A29G
DNA 1: CAATCTGAATTCCGGTCTCCC
DNA 2: TGGTGGCTACGACGGGATT
B28: AAAUAAA (DNA:RNA)
RNA: B4 RNA with C25A, G28U, C30A, C31A
DNA 1: CAATCTGAATTCCGGTCTCCC
DNA 2: TGGTGGCTACGACGGGATT
B29: UGCCUUU (DNA:RNA)
RNA: B1 RNA with G25U, G27C, G29U, G30U
DNA 1: CAATCTGAATTCCGGTCTCCC
DNA 2: TGGTGGCTACGACGGGATT
B30: CUGGCUU (DNA:RNA)
RNA: B4 RNA with A26U, A27G, A29C, C30U, C31U
DNA 1: CAATCTGAATTCCGGTCTCCC
DNA 2: TGGTGGCTACGACGGGATT
B31: AGACCCU (DNA:RNA)
RNA: B1 RNA with G25A, G27A, G29C, G30C
DNA 1: CAATCTGAATTCCGGTCTCCC
DNA 2: TGGTGGCTACGACGGGATT

In the assay the target is T1, RBFOX1 RRM RbFoxmut (Fox-RRM*). Description: EMSA; HiTS-Eq, 1 nM pool, 10 min; buffer printed only for the single-RNA assays: 10 mM Tris pH 7.5, 150 mM NaCl, 3.4 mM EDTA, 0.001% NP-40, 30 C. The note with it: tags: His6 N-terminal (pET28a); label: 5' 32P. In a few lines:
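Purified RbFox RRM, wild type or mutant, was incubated for 10 min in 50 µL with 1 nM of a 5′-radiolabelled RNA pool carrying 7 randomized nucleotides, whose flanks were annealed to DNA oligonucleotides, over a series of increasing protein concentrations. Unbound RNA was resolved on 8% native PAGE, cut out, reverse-transcribed, barcoded by PCR and sequenced on an Illumina HiSeq 2500. Relative association constants were derived from changes in read counts for each RNA species versus the control reaction and normalised to the cognate motif.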
In general terms: A gel shift assay detects complexes by their altered migration in electrophoresis.
Consider B1, for which the binding signal is 0.126 KA relative to UGCAUGU.

In the case of B2, the binding signal is 0.383 KA relative to UGCAUGU.

With B3, the binding signal was 0.0917 KA relative to UGCAUGU.

Turning to B4, the binding signal is 0.0774 KA relative to UGCAUGU.

Consider B5, for which the binding signal was 0.0809 KA relative to UGCAUGU.

In the case of B6, the binding signal is 0.0629 KA relative to UGCAUGU.

Turning to B7, the binding signal was 0.0932 KA relative to UGCAUGU.

Regarding B8, the binding signal is 0.122 KA relative to UGCAUGU.

In the case of B9, the binding signal was 0.21 KA relative to UGCAUGU.

B10: the binding signal was 0.102 KA relative to UGCAUGU.

B11: the binding signal was 0.0608 KA relative to UGCAUGU.

Take B12: the binding signal is 0.0633 KA relative to UGCAUGU.

As for B13, the binding signal is 0.0706 KA relative to UGCAUGU.

For the molecule B14, the binding signal is 0.15 KA relative to UGCAUGU.

Regarding B15, the binding signal is 0.407 KA relative to UGCAUGU.

With B16, the binding signal is 0.0792 KA relative to UGCAUGU.

As for B17, the binding signal was 0.112 KA relative to UGCAUGU.

With B18, the binding signal is 0.108 KA relative to UGCAUGU.

As for B19, the binding signal is 0.101 KA relative to UGCAUGU.

Consider B20, for which the binding signal is 0.24 KA relative to UGCAUGU.

In the case of B21, the binding signal is 0.0948 KA relative to UGCAUGU.

Turning to B22, the binding signal was 0.186 KA relative to UGCAUGU.

Take B23: the binding signal is 0.06 KA relative to UGCAUGU.

On to B24, for which the binding signal was 0.139 KA relative to UGCAUGU.

For the molecule B25, the binding signal was 0.0789 KA relative to UGCAUGU.

Regarding B26, the binding signal is 0.0797 KA relative to UGCAUGU.

As to B27, the binding signal was 0.075 KA relative to UGCAUGU.

Turning to B28, the binding signal is 0.115 KA relative to UGCAUGU.

Consider B29, for which the binding signal is 0.0953 KA relative to UGCAUGU.

For the molecule B30, the binding signal is 0.0916 KA relative to UGCAUGU.

B31: the binding signal was 0.0627 KA relative to UGCAUGU.
